Results: PubChem BioAssay AID1508623 (National Center for Advancing Translational Sciences (NCATS), 2021)
Among all 48,000 compounds or so, about 450 (0.94%) were called active. The inconclusive results got no clear call from the source; some entries with a clear call stand among them for comparison. The call rests on the fitted dose curve; in most records, active means well fitted inhibition curve with a large enough effect; inconclusive means small, poorly fitted or top-dose-only effect; inactive means no such curve, though single readings can be large or run the other way. Potencies of inconclusive entries are doubtful fits and often do not repeat.

Assay: Primary qHTS for Identification of Small Molecule Inhibitors of Huntingtin Promoter Activity; further: nearly all actives have a fitted effect of over 50% in size
Conditions: HEK293 HTT promoter firefly luciferase reporter (activity 0% = vehicle and -100% = no light), 24 h; series mostly up to 57.5 µM
Procedure, shortened: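 Firefly luciferase readout (Dual-Glo, 10 min RT) after 24 h, 37 °C compound exposure (final up to 57.5 uM) of HEK293 reporter cells cultured 24 h beforehand; PTC124 at 50 uM final as control inhibitor; activity scaled vehicle 0%, zero RLU -100%.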
Potency means the concentration at half of the fitted maximal effect; tags describe the fitted curve by direction and shape.

SMILES | Potency
CCCCN(CCCC)C(=O)c1c[nH]c2ccc(S(=O)(=O)Nc3cccc(Cl)c3C)cc2c1=O | inconclusive: 31.6 µM [inhibitor, partial curve, poor fit]
CCOC(=O)C1CCN(C(=O)c2cnn(-c3ccc(F)cc3)c2-n2cccc2)CC1 | inconclusive: 17.8 µM [inhibitor, partial curve, poor fit]
CCOC(=O)c1[nH]c2c(c1Cc1ccccc1)C(=O)CC(c1ccc(C(C)(C)C)cc1)C2 (stereo unspecified) | inconclusive: 39.8 µM [inhibitor, single point]
CCN(CC)S(=O)(=O)c1cc(-c2ccc(=O)n(C(C)C(=O)Nc3cccc(C#N)c3)n2)ccc1C (stereo unspecified) | inconclusive: 39.8 µM [inhibitor, partial curve, poor fit]
COc1ccc(-c2noc(CSc3nnc(Cc4ccccc4)n3-c3ccc(F)cc3)n2)cc1 | inconclusive: 31.6 µM [inhibitor, single point]
COc1ccc(CNC(=O)CCCn2ccc3cc(S(=O)(=O)N4CCCC4)ccc32)cc1 | inconclusive: 11.2 µM [inhibitor, partial curve]
COc1ccc2c(CNCCc3ccco3)c(C(=O)O)n(Cc3ccc(C)cc3)c2c1 | inactive
Cc1ccc(-n2nc(C(=O)N(C)c3ccc(C)c(C)c3)c3c4ccccc4n(C)c3c2=O)cc1 | inconclusive: 8.91 µM [inhibitor, full curve]
Cc1ccc(CN2CCC(CNC(=O)c3cnn(-c4ccc(C)cc4)c3C3CCN(C(=O)OC(C)(C)C)CC3)CC2)cc1 | inconclusive: 31.6 µM [inhibitor, single point]
Cc1ccc(S(=O)(=O)N(CC(=O)Nc2cccnc2)c2cc(Cl)ccc2C)cc1 | inconclusive: 25.1 µM [inhibitor, partial curve, poor fit]
Cc1cc(=O)n(CC(=O)Nc2ccc(Cl)c(Cl)c2)c(-n2nc(C)cc2C)n1 | inconclusive: 31.6 µM [inhibitor, partial curve, poor fit]
Cc1cccc(NC(=O)CCCn2nc(C)c3c(C)n(-c4ccccc4)nc3c2=O)c1C | inactive
CCOc1ccc(CNC(=O)c2ccc(CSc3nc4ccncc4n3Cc3ccc(F)cc3)cc2)cc1 | inconclusive: 15.8 µM [inhibitor, partial curve, poor fit]
Cc1nn(-c2ccccc2)c2nc(C3CC3)cc(C(=O)Nc3cccc(F)c3)c12 | inconclusive: 28.2 µM [inhibitor, partial curve, poor fit]
Cc1nn2c(=O)cc(COc3ccc(/C=C(\C#N)C(=O)Nc4ccccc4C)cc3)nc2s1 | inconclusive: 20 µM [inhibitor, single point]
CCCCN1C(=O)c2[nH]nc(-c3ccccc3O)c2C1c1ccc(OCc2ccccc2)c(OC)c1 (stereo unspecified) | inconclusive: 20 µM [inhibitor, partial curve, poor fit]
CCCCn1cc2c(c1-c1ccc(Br)cc1)c(=O)n(C)c(=O)n2C | inconclusive: 28.2 µM [inhibitor, single point]
CSc1ccc(C2c3c(-c4ccccc4O)n[nH]c3C(=O)N2Cc2ccncc2)cc1 (stereo unspecified) | inconclusive: 25.1 µM [inhibitor, single point]

SMILES | Potency
Cc1cccc(C(=O)NCCc2nc3ccccc3n2CCC(C)C)c1 | inconclusive: 12.6 µM [inhibitor, partial curve, poor fit]
COc1ccc(NCc2cc3ccc(OC)cc3n(CC(=O)Nc3ccc(C)c(C)c3)c2=O)cc1 | inconclusive: 17.8 µM [inhibitor, partial curve]
CN[C@@H]1[C@@H](O)[C@@H](O[C@@H]2[C@@H](O)[C@H](O[C@H]3O[C@H](CN)[C@@H](O)[C@H](O)[C@@H]3O)[C@@H](N)C[C@@H]2NC(=O)[C@@H](O)CN)OC[C@]1(C)O | inactive
O=c1c2sc3ccccc3c2n(Cc2cccc(Cl)c2)c(=O)n1Cc1ccccc1 | inconclusive: 22.4 µM [inhibitor, partial curve, poor fit]
CC(=O)Nc1ccc(S(=O)(=O)NCCc2csc3nc(-c4ccc(Cl)cc4)nn23)cc1 | inconclusive: 20 µM [inhibitor, single point]
CCC1CN(C(=O)NCc2ccc(F)cc2)c2cc(C)ccc2O1 (stereo unspecified) | inactive
Cc1cccc(N(C)S(=O)(=O)c2nnc(NC(=O)C(C)Oc3ccccc3)s2)c1 (stereo unspecified) | inconclusive: 39.8 µM [inhibitor, single point]
CN1C(=O)c2ccccc2Sc2ccc(NC(=O)Cc3ccc(Cl)cc3)cc21 | inconclusive: 35.5 µM [inhibitor, single point]
COc1ccc(OC)c(CCNC(=O)c2ccc3c(c2)N(Cc2ccccc2)CCS3)c1 | inconclusive: 15.8 µM [inhibitor, partial curve]
O=C(CSc1nc(Nc2ccccc2)c2ccccc2n1)c1ccc(Cl)cc1 | inactive
CCCCOC(=O)c1ccc(NC(=O)c2ccc3c(c2)CCN3S(C)(=O)=O)cc1 | inconclusive: 28.2 µM [inhibitor, partial curve, poor fit]
CCNc1nc2c(c(=O)n(C)c(=O)n2C)n1Cc1ccc(F)cc1 | inconclusive: 14.1 µM [inhibitor, partial curve, poor fit]
Cc1ccccc1S(=O)Cc1ccc(C(=O)NCc2ccccc2Cl)o1 (stereo unspecified) | inconclusive: 28.2 µM [inhibitor, single point]
Cc1ccc(CSC2=NC(C)(C)Nc3ccccc32)c(C)c1 | inactive
O=C(Cn1cc(C(=O)c2ccco2)c2ccccc21)Nc1ccccc1C(F)(F)F | inactive
COc1ccc(C)c2sc(N(Cc3cccnc3)C(=O)c3cccs3)nc12 | inconclusive: 10 µM [inhibitor, partial curve, poor fit]
COc1ccc(CNS(=O)(=O)c2ccc(-c3cc(C(F)(F)F)on3)s2)cc1OC | inconclusive: 15.8 µM [inhibitor, partial curve, poor fit]
COC(=O)c1c(C)oc2ccc(N(C(=O)c3ccncc3)S(=O)(=O)c3ccc(Br)cc3)cc12 | inconclusive: 14.1 µM [inhibitor, partial curve, poor fit]
